# Measured values taken from PubChem BioAssay AID2451 (National Center for Advancing Translational Sciences (NCATS), 2010).
# “And” between values parts separate entries of the source, which are not always exact repeats. Equal entries are not always repeated. The campaign covered roughly 290,000 compounds. About 2,100 (0.72%) were called active. Inconclusive means that the source gave no clear call. Such entries were picked first, then a sample of the others. The call rests on the fitted dose curve; in most records, active means well fitted inhibition curve with a large enough effect; inconclusive means small, poorly fitted or top-dose-only effect, or effect the other way; inactive means flat fitted curve, though single readings scatter. Potencies of inconclusive entries are doubtful fits and often do not repeat.
# Target: Fructose-bisphosphate aldolase (Giardia intestinalis (strain ATCC 50803 / WB clone C6)) (UniProt A8B2U2)
# Chain of UniProt A8B2U2 (A8B2U2 whole entry, looked up): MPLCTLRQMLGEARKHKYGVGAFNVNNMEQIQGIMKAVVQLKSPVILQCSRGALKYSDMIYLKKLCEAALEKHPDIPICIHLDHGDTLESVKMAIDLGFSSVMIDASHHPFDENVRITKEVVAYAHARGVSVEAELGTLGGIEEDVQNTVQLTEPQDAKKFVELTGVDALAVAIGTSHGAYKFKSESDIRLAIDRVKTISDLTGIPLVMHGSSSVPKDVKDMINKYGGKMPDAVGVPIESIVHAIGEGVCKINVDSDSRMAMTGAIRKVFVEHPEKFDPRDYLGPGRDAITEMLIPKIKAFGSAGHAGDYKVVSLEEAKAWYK
# Test: qHTS Assay for Inhibitors of Fructose-1,6-bisphosphate Aldolase from Giardia Lamblia; further: nearly all actives have a fitted effect of over 55% in size
# Details: purified Giardia FBPA; activity, negative = inhibition: at 59.6 µM (top of the series) unless noted
# Procedure, shortened: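 40 nM FBPA preincubated 10 min at RT with compound (up to 57.5 uM final), then substrate plus GAPDH/TPI/NAD/arsenate coupling and diaphorase/resazurin added. Fluorescence read after 20 min at RT, 525/598 nm.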
# On the % scale 0 is the no-effect control and ±100 the full control effect; potency means the concentration at half of the fitted maximal effect; tags describe the fitted curve by direction and shape.
Structure (SMILES),"activity, negative = inhibition",Potency
COc1cccc([C@@H]2Oc3ccc(Br)cc3C(=O)[C@H]2OC(=O)NS(=O)(=O)c2ccc(C)cc2)c1,inactive: 3.03%,
O=C(COc1ccc(Br)cc1Cl)NC(=S)Nc1ccccn1,,"inconclusive: 3.16 µM [inhibitor, full curve]"
CNC(=O)N(O)C1N(/N=C/c2ccc(C)cc2)C(=S)SC1(C)C (stereo unspecified),,"inconclusive: 39.8 µM [inhibitor, partial curve]"
CNC(=O)Oc1cccc(-c2cn3cc(OC(=O)NC)ccc3n2)c1,,"inconclusive: 9.98 µM [inhibitor, partial curve]"
CCOc1ccc(N2C(=O)CS/C2=C(\C(Cl)=C(Cl)Cl)[N+](=O)[O-])cc1,,"inconclusive: 14.1 µM [inhibitor, partial curve]"
N#CCCn1cc(/C=N/NC(N)=S)c(-c2ccccc2)n1,,"inconclusive: 17.7 µM [inhibitor, single point]"
COc1cccc2sc3ccc(NCc4ccc5c(c4)OCO5)cc3c(=O)c12,,"inconclusive: 25.1 µM [inhibitor, single point]"
CC1CCCC/C1=N/Nc1ccc([N+](=O)[O-])cc1[N+](=O)[O-] (stereo unspecified),inactive: 5.45%,
Cc1cc(C)n(NC(=S)NC2CCCCC2)c(=O)c1C#N,,"inconclusive: 17.7 µM [inhibitor, single point]"
COc1ccccc1NC(=S)Nc1ccc2cn[nH]c2c1,,"inconclusive: 19.9 µM [inhibitor, partial curve]"
Cc1ccc2nc(-c3cccc(Br)c3)cc(C(=O)Nn3cnnc3)c2c1,,"inconclusive: 15.8 µM [inhibitor, partial curve]"
COc1cccc(CNCc2cc(OC)cc(OC)c2)c1,,"inconclusive: 20 µM [inhibitor, partial curve]"
CCN1CCN(C(=S)NCC(C)C)CC1,,"inconclusive: 22.3 µM [inhibitor, partial curve]"
O=[N+]([O-])c1ccc(Sc2cccc3cccnc23)c2cccnc12,,"inconclusive: 17.7 µM [inhibitor, partial curve]"
C=CCn1c(CNc2ccccc2)nnc1SCC(=O)N/N=C/c1ccccc1O,,"inconclusive: 5.61 µM [inhibitor, full curve]"
COc1ccc(CCNC(=O)CSc2nnc(-c3ccco3)c(-c3ccco3)n2)cc1OC,,active: 12.6 µM
S=c1[nH]ncn1/N=C/c1cccs1,,"inconclusive: 3.97 µM [inhibitor, full curve]"
Cc1nc2c(-c3ccccc3)c[nH]n2c(=O)c1Cc1ccccc1,,"inconclusive: 44.6 µM [inhibitor, single point]"
COc1ccc(C2C(C(=O)Nc3cccnc3)=C(C)Nc3nc(-c4cccs4)nn32)cc1 (stereo unspecified),inactive: 4.59%,
CC(C)CCNC(=O)CN(C(=O)CCC(=O)Nc1ccccn1)c1ccc2c(c1)OCO2,inactive: -0.785%,
CC1(C)CCC2=C(O1)c1ccccc1C(=O)C2=O,,active: 1.99 µM and active: 1.58 µM
CCCc1nc2oc3c(Cl)ncnc3c2c2c1CCCC2,inactive: 4.02%,
O=C(/C=C/c1ccc2c(c1)OCO2)c1ccccn1,,"inconclusive: 19.9 µM [inhibitor, partial curve]"
CC[n+]1ccc2cc(OC)c(OC)cc2c1Cc1ccc(OC)c(OC)c1,,"inconclusive: 15.8 µM [inhibitor, single point]"

Structure (SMILES),"activity, negative = inhibition",Potency
COc1cc(NC(=O)CN(C)S(=O)(=O)c2cccs2)cc(OC)c1,inactive: -3.68%,
CSCC[C@H](N)C(=O)N1CCC(C(=O)N[C@H](C)C(=O)Nc2ccc(C(C)C)cc2)CC1,inactive: -3.3%,
Cc1cc(=O)oc2cc(NC(=O)[C@H](CCCCN)NC(=O)[C@H](CC3CCCCC3)NC(=O)OCC3c4ccccc4-c4ccccc43)ccc12,inactive: -4.22%,
CCOc1ccc(NC(=O)C(c2ccccn2)N(C(=O)CCl)c2ccc(F)cc2)cc1 (stereo unspecified),,"inconclusive: 17.7 µM [inhibitor, partial curve]"
Cn1c(=O)c2cn(-c3ccc4c(c3)OCCO4)cc2n(C)c1=O,,"inconclusive: 15.8 µM [inhibitor, single point]"
Cn1cccc1C(=O)N1CCC2(CC1)CN(C(=O)Nc1cccc(C#N)c1)C2,inactive: 7.85%,
O=C(N/N=C/c1ccccn1)c1cccc(S(=O)(=O)N2CCCC2)c1,,active: 15.8 µM
COc1cccc(C(=O)Nc2ccc(NC(=O)C(C)(C)C)cn2)c1,inactive: -2.14%,
COc1ccc(-n2ncc3c(Nc4cccc(C)c4)ncnc32)cc1,,"inconclusive: 19.9 µM [inhibitor, single point]"
CC1CCCCN1CCn1c(=S)[nH]c2ncccc2c1=O (stereo unspecified),inactive: -19.5%,
Fc1cc(F)c(F)c(SCCc2ccncc2)c1F,,"inconclusive: 31.6 µM [inhibitor, single point]"
CC(Oc1ccc(F)cc1)C(=O)Nc1cccc(-c2nn[nH]n2)c1 (stereo unspecified),,"inconclusive: 17.8 µM [inhibitor, single point]"
Cc1cccc(Nc2c([N+](=O)[O-])cc(C(=O)N3CC(=O)Nc4ccccc43)cc2[N+](=O)[O-])c1,,"inconclusive: 14.1 µM [inhibitor, partial curve]"
CC(C)C(=O)NNC(=O)c1cc2sccc2s1,inactive: 2.01%,
COc1ccccc1OCCNC(=O)c1cc(F)c(F)cc1Cl,inactive: 0.591%,
COc1cccc(OC)c1OCCCN1CCOCC1,,"inconclusive: 19.9 µM [inhibitor, partial curve]"
NC(=S)NN=C1c2ccccc2-c2ccccc21,,"inconclusive: 3.98 µM [inhibitor, partial curve]"
Nn1cnnc1N/N=C\c1ccc(-c2ccccc2[N+](=O)[O-])o1,,active: 1.77 µM
CC(C)(C)C(=O)NC(=S)NNC(=O)c1ccncc1,,"inconclusive: 3.54 µM [inhibitor, full curve]"
CCOC(=O)c1cnc(Cc2ccccc2)[nH]c1=O,,"inconclusive: 25.1 µM [inhibitor, single point]"
Cc1cc(NC(=O)CC(C)C)c(=O)n(Cc2cccc(F)c2)c1,,"inconclusive: 22.4 µM [inhibitor, partial curve]"
CC(C)C[C@H](NC(=O)c1[nH]cnc1C(=O)N[C@@H](C)c1ccccc1)C(=O)OCc1ccccc1,,"inconclusive: 7.92 µM [inhibitor, partial curve]"
CN(C)C(CNC(=O)c1ccc(NC(=O)CC#N)cc1)c1ccccc1 (stereo unspecified),inactive: -0.0538%,
O=CC1=C(N2CCOCC2)/C(=C/c2ccc(Cl)cc2)CC1,inactive: -6.7%,

Structure (SMILES),"activity, negative = inhibition",Potency
O=C(CSc1nnc(-c2ccccc2)o1)N1CCCC1,inactive: 6.5%,
C=CCc1cccc(/C=N/NC(=O)c2ccccc2Br)c1O,,"inconclusive: 17.7 µM [inhibitor, single point]"
Cc1c(C(=O)O)[nH]c2c1C(=O)CC(c1ccc(Cl)cc1)C2 (stereo unspecified),,"inconclusive: 15.8 µM [activator, partial curve]"
COC(=O)c1sc(NC(=O)c2cc(-c3ccccc3)nc3ccccc23)c(C#N)c1C,,active: 1.41 µM
CCN(CC)c1ccc(C=Nc2ccccc2)c(O)c1,,"inconclusive: 7.92 µM [inhibitor, partial curve]"
CN(C)[C@@H]1C(=O)C(C(N)=O)=C(O)[C@@]2(O)C(=O)C3=C(O)c4c(O)ccc(Cl)c4[C@@H](O)[C@H]3C[C@@H]12,,"inconclusive: 14.1 µM [inhibitor, partial curve]"
C[C@@H]1c2cccc(O)c2C(O)=C2C(=O)[C@@]3(O)C(O)=C(C(N)=O)C(=O)[C@@H](N(C)C)[C@@H]3[C@@H](O)[C@@H]21,,"inconclusive: 6.29 µM [inhibitor, full curve]"
COc1ccc(C(c2c(C)[nH]n(-c3ccccc3)c2=O)c2c(C)[nH]n(-c3ccccc3)c2=O)cc1OC,,"inconclusive: 0.561 µM [inhibitor, full curve]"
Nc1nc(CSCc2ccccc2)nc(N2CCOCC2)n1,inactive: -24.9%,
CC(NC(=O)Cn1cc(C(F)(F)F)cc(Cl)c1=O)c1ccccc1 (stereo unspecified),inactive: 0.816%,
CCCCS/C(N)=N/N=C/c1ccccc1O,inactive: 1.56%,
CN(C)CCCn1c(=S)[nH]c2sc3c(c2c1=O)CCCC3,,"inconclusive: 17.8 µM [inhibitor, single point]"
COc1cc2c(cc1OC)-c1c(OC)c(OC)cc3ccnc(c13)C2=O,,"inconclusive: 3.54 µM [inhibitor, full curve]"
CSc1cccc(NC(=O)c2ccc(CN3CCc4ccccc4C3)cc2)c1,,"inconclusive: 22.4 µM [inhibitor, partial curve]"
COc1cccc(NC(=O)c2cncs2)c1,inactive: 2.98%,
Cc1cc(=O)[nH]c(-n2[nH]c3c(c2=O)CCCC3)n1,,"inconclusive: 12.6 µM [inhibitor, partial curve]"
COc1cccc(C2CC(=O)N3CN(c4cccc(Cl)c4C)CSC3=C2C#N)c1OC (stereo unspecified),,"inconclusive: 0.998 µM [inhibitor, full curve]"
OCCN(CCO)c1ccc2ccccc2c1,,active: 15.8 µM
Cn1c(-c2ccc(F)cc2)cnc1NCc1cc2c(cc1[N+](=O)[O-])OCO2,,"inconclusive: 5.61 µM [inhibitor, partial curve]"
COc1ccc(CCC(C)NCc2cccc(Br)c2)cc1 (stereo unspecified),,"inconclusive: 28.2 µM [inhibitor, single point]"
COc1ccc([N+](=O)[O-])cc1/C=N/NC(=O)/C(=C\c1cccs1)NC(=O)c1ccccc1,,"inconclusive: 15.8 µM [inhibitor, partial curve]"
O=C(CCSc1ccc(Cl)c(Cl)c1)NC12CC3CC(CC(C3)C1)C2,inactive: -0.767%,
O=C(NNC(=O)c1ccccc1F)C1=NN(c2ccccc2)C(=O)CC1,,"inconclusive: 17.8 µM [inhibitor, partial curve]"
